# Some of the results follow. Sequences were assembled here from the parent chain. Values near 0.05 are background.
# B1: TEV protease; numbered along this chain (parent)
# chain: MGESLFKGPRDYNPISSSICHLTNESDGHTTSLYGIGFGPFIITNKHLFRRNNGTLVVQSLHGVFKVKDTTTLQQHLVDGRDMIIIRMPKDFPPFPQKLKFREPQREERICLVTTNFQTKSMSSMVSDTSCTFPSGDGIFWKHWIQTKDGQCGSPLVSTRDGFIVGIHSASNFTNTNNYFTSVPKNFMELLTNQEAQQWVSGWRLNADSVLWGGHKVFMVKPEEPFQPVKEATQL
# Variants of: B1
# Test: raw area under fraction-flipped curve 0-4 h after induction (AUC4h, not background-subtracted), DNA-recorder readout of cleavage of the substrate (dimensionless); higher = more cleavage of the substrate by the protease variant
# Settings: temperature: 34 °C; time window: 0-4 h after rhamnose induction
# Protocol: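 In vivo DNA recorder in E. coli TOP10(DE3) ΔrhaA at 34 °C. Each TEVp single-site mutant (parent TEVp 0) is paired with a single-site variant of the 7-mer TEVs (canonical ENLYFQ|S). The substrate sits between flexible linkers in a Bxb1-sfGFP-TEVs-SsrA fusion, so cleavage stabilises Bxb1 and speeds flipping of a recombination array, read by NGS. The value is the raw area under the fraction-flipped curve over 0-4 h after rhamnose induction (AUC4h), with ≥20 reads per time point. It is not background-subtracted; inactive controls average about 0.047.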
# 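Also: Bxb1 expression induced with 0.2% (w/v) L-rhamnose at OD600 near 0.5, cultures sampled hourly, flipped fraction per protease–substrate barcode pair counted by paired-end Illumina sequencing.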
Variant,area with substrate CNLYFQS,area with substrate FNLYFQS,area with substrate HNLYFQS,area with substrate INLYFQS,area with substrate WNLYFQS,area with substrate YNLYFQS,area with substrate DNLYFQS,area with substrate GNLYFQS,area with substrate KNLYFQS,area with substrate LNLYFQS,area with substrate NNLYFQS,area with substrate TNLYFQS,area with substrate MNLYFQS,area with substrate PNLYFQS,area with substrate QNLYFQS,area with substrate SNLYFQS,area with substrate VNLYFQS,area with substrate RNLYFQS
MGESLFKGPRDYNPISSSICHLTNESDGHTTSLYGIGFGPFIITNKHLFRRNNGTLVVQSLHGVFKVKDTTTLQQHLVDGRDMIIIRMPKDFPPFPQKLKFREPQREERICLVTTNFQTKSMSSMVSDTSCTFPSGDGIFWKHWIQTKDGQQGSPLVSTRDGFIVGIHSASNFTNTNNYFTSVPKNFMELLTNQEAQQWVSGWRLNADSVLWGGHKVFMVKPEEPFQPVKEATQL [C152Q],0.0607,0.0663,0.0584,0.0474,0.0456,0.0532,,,,,,,,,,,,
MGESLFKGPRDYNPISSSICHLTNESDGHTTSLYGIGFGPFIITNKHLFRRNNGTLVVQSLHGVFKVKDTTTLQQHLVDGRDMIIIRMPKDFPPFPQKLKFREPQREERICLVTTNFQTKSMSSMVSDTSCTFPSGDGIFWKHWIQTKDGQRGSPLVSTRDGFIVGIHSASNFTNTNNYFTSVPKNFMELLTNQEAQQWVSGWRLNADSVLWGGHKVFMVKPEEPFQPVKEATQL [C152R],0.0676,,0.0524,0.0585,0.0605,,0.0584,0.0178,0.048,0.0613,0.0636,0.0579,,,,,,
MGESLFKGPRDYNPISSSICHLTNESDGHTTSLYGIGFGPFIITNKHLFRRNNGTLVVQSLHGVFKVKDTTTLQQHLVDGRDMIIIRMPKDFPPFPQKLKFREPQREERICLVTTNFQTKSMSSMVSDTSCTFPSGDGIFWKHWTQTKDGQCGSPLVSTRDGFIVGIHSASNFTNTNNYFTSVPKNFMELLTNQEAQQWVSGWRLNADSVLWGGHKVFMVKPEEPFQPVKEATQL [I145T],0.0541,0.0607,0.0604,0.0508,0.0611,0.056,0.0803,,0.0764,0.0744,,0.0869,0.0563,0.0626,0.0727,0.0745,0.0703,
MGESLFKGPRDYNPISSSICHLTNESDGHTTSLYGIGFGPFIITNKHLFRRNNGTLVVQSLHGVFKVKDTTTLQQHLVDGRDMIIIRMPKDFPPFPQKLKFREPQREERICLVTTNFQTKSMSSMVSDTSCTFPSGDGIFWKHWIQTKGGQCGSPLVSTRDGFIVGIHSASNFTNTNNYFTSVPKNFMELLTNQEAQQWVSGWRLNADSVLWGGHKVFMVKPEEPFQPVKEATQL [D149G],0.0501,,0.062,,0.059,0.053,0.0547,0.057,0.0581,0.0593,0.0377,0.0677,,0.0671,,0.0435,0.0685,
MGESLFKGPRDYNPISSSICHLTNESDGHTTSLYGIGFGPFIITNKHLFRRNNGTLVVQSLHGVFKVKDTTTLQQHLVDGRDMIIIRMPKDFPPFPQKLKFREPQREERICLVTTNFQTKSMSSMVSDTSCTFPSGDGIFWKHAIQTKDGQCGSPLVSTRDGFIVGIHSASNFTNTNNYFTSVPKNFMELLTNQEAQQWVSGWRLNADSVLWGGHKVFMVKPEEPFQPVKEATQL [W144A],0.0677,,,0.0696,0.0763,,0.0889,0.0689,,0.0377,0.0657,0.0748,0.0745,0.085,,0.0677,,
MGESLFKGPRDYNPISSSICHLTNESDGHTTSLYGIGFGPFIITNKHLFRRNNGTLVVQSLHGVFKVKDTTTLQQHLVDGRDMIIIRMPKDFPPFPQKLKFREPQREERICLVTTNFQTKSMSSMVSDTSCTFPSGDGIFWKHIIQTKDGQCGSPLVSTRDGFIVGIHSASNFTNTNNYFTSVPKNFMELLTNQEAQQWVSGWRLNADSVLWGGHKVFMVKPEEPFQPVKEATQL [W144I],0.0192,,0.0662,0.0596,0.0507,,,,,0.0624,0.0588,0.0689,0.0646,0.0631,,0.0656,0.0692,0.0594
MGESLFKGPRDYNPISSSICHLTNESDGHTTSLYGIGFGPFIITNKHLFRRNNGTLVVQSLHGVFKVKDTTTLQQHLVDGRDMIIIRMPKDFPPFPQKLKFREPQREERICLVTTNFQTKSMSSMVSDTSCTFPSGDGIFWKHGIQTKDGQCGSPLVSTRDGFIVGIHSASNFTNTNNYFTSVPKNFMELLTNQEAQQWVSGWRLNADSVLWGGHKVFMVKPEEPFQPVKEATQL [W144G],0.0661,,0.0626,,0.0431,0.0723,0.0757,0.0626,0.0699,0.0696,0.0602,0.0715,,,0.0709,0.0479,,0.0651
MGESLFKGPRDYNPISSSICHLTNESDGHTTSLYGIGFGPFIITNKHLFRRNNGTLVVQSLHGVFKVKDTTTLQQHLVDGRDMIIIRMPKDFPPFPQKLKFREPQREERICLVTTNFQTKSMSSMVSDTSCTFPSGDGIFWKHDIQTKDGQCGSPLVSTRDGFIVGIHSASNFTNTNNYFTSVPKNFMELLTNQEAQQWVSGWRLNADSVLWGGHKVFMVKPEEPFQPVKEATQL [W144D],0.0761,0.0665,0.031,0.0691,0.0572,,0.0752,,0.0876,0.0658,,0.0673,,0.0787,,0.0718,0.0781,
MGESLFKGPRDYNPISSSICHLTNESDGHTTSLYGIGFGPFIITNKHLFRRNNGTLVVQSLHGVFKVKDTTTLQQHLVDGRDMIIIRMPKDFPPFPQKLKFREPQREERICLVTTNFQTKSMSSMVSDTSCTFPSGDGIFWKHWIQTKDTQCGSPLVSTRDGFIVGIHSASNFTNTNNYFTSVPKNFMELLTNQEAQQWVSGWRLNADSVLWGGHKVFMVKPEEPFQPVKEATQL [G150T],0.0491,0.0573,0.061,0.0544,0.0649,0.0607,0.0642,0.0678,,0.0689,0.0588,0.0621,0.0594,0.0542,0.0676,0.0601,0.0564,
MGESLFKGPRDYNPISSSICHLTNESDGHTTSLYGIGFGPFIITNKHLFRRNNGTLVVQSLHGVFKVKDTTTLQQHLVDGRDMIIIRMPKDFPPFPQKLKFREPQREERICLVTTNFQTKSMSSMVSDTSCTFPSGDGIFWKHWIQTKDNQCGSPLVSTRDGFIVGIHSASNFTNTNNYFTSVPKNFMELLTNQEAQQWVSGWRLNADSVLWGGHKVFMVKPEEPFQPVKEATQL [G150N],0.0568,,0.0606,0.0565,0.0594,0.0525,0.0639,0.0625,0.0621,0.0526,0.0636,0.0605,0.0611,0.0514,0.0686,0.0407,,
MGESLFKGPRDYNPISSSICHLTNESDGHTTSLYGIGFGPFIITNKHLFRRNNGTLVVQSLHGVFKVKDTTTLQQHLVDGRDMIIIRMPKDFPPFPQKLKFREPQREERICLVTTNFQTKSMSSMVSDTSCTFPSGDGIFWKHWIQTKDCQCGSPLVSTRDGFIVGIHSASNFTNTNNYFTSVPKNFMELLTNQEAQQWVSGWRLNADSVLWGGHKVFMVKPEEPFQPVKEATQL [G150C],0.0628,0.057,0.0565,0.0531,0.0555,0.0608,0.0591,0.0647,0.0628,0.0643,,0.0547,0.0598,0.0526,0.0538,0.0698,,
MGESLFKGPRDYNPISSSICHLTNESDGHTTSLYGIGFGPFIITNKHLFRRNNGTLVVQSLHGVFKVKDTTTLQQHLVDGRDMIIIRMPKDFPPFPQKLKFREPQREERICLVTTNFQTKSMSSMVSDTSCTFPSADGIFWKHWIQTKDGQCGSPLVSTRDGFIVGIHSASNFTNTNNYFTSVPKNFMELLTNQEAQQWVSGWRLNADSVLWGGHKVFMVKPEEPFQPVKEATQL [G136A],0.0543,,,,0.0628,0.0653,,,,,0.0746,0.0411,,,,0.0677,,
MGESLFKGPRDYNPISSSICHLTNESDGHTTSLYGIGFGPFIITNKHLFRRNNGTLVVQSLHGVFKVKDTTTLQQHLVDGRDMIIIRMPKDFPPFPQKLKFREPQREERICLVTTNFQTKSMSSMVSDTSCTFPSVDGIFWKHWIQTKDGQCGSPLVSTRDGFIVGIHSASNFTNTNNYFTSVPKNFMELLTNQEAQQWVSGWRLNADSVLWGGHKVFMVKPEEPFQPVKEATQL [G136V],0.0664,0.0293,0.0585,0.0582,,,0.0938,0.0557,,0.067,0.0563,0.0595,0.0546,0.0633,,,0.0618,
MGESLFKGPRDYNPISSSICHLTNESDGHTTSLYGIGFGPFIITNKHLFRRNNGTLVVQSLHGVFKVKDTTTLQQHLVDGRDMIIIRMPKDFPPFPQKLKFREPQREERICLVTTNFQTKSMSSMVSDTSCTFPSFDGIFWKHWIQTKDGQCGSPLVSTRDGFIVGIHSASNFTNTNNYFTSVPKNFMELLTNQEAQQWVSGWRLNADSVLWGGHKVFMVKPEEPFQPVKEATQL [G136F],0.0659,0.0606,0.0675,,0.0639,0.069,,0.0755,0.0586,0.0487,0.0672,0.0637,0.0491,0.0756,,0.0616,0.0891,
MGESLFKGPRDYNPISSSICHLTNESDGHTTSLYGIGFGPFIITNKHLFRRNNGTLVVQSLHGVFKVKDTTTLQQHLVDGRDMIIIRMPKDFPPFPQKLKFREPQREERICLVTTNFQTKSMSSMVSDTSCTFPSEDGIFWKHWIQTKDGQCGSPLVSTRDGFIVGIHSASNFTNTNNYFTSVPKNFMELLTNQEAQQWVSGWRLNADSVLWGGHKVFMVKPEEPFQPVKEATQL [G136E],0.0712,,,,0.0459,,0.0804,,0.0596,0.0622,0.0708,0.0582,0.055,0.0571,,0.0696,0.0796,
MGESLFKGPRDYNPISSSICHLTNESDGHTTSLYGIGFGPFIITNKHLFRRNNGTLVVQSLHGVFKVKDTTTLQQHLVDGRDMIIIRMPKDFPPFPQKLKFREPQREERICLVTTNFQTKSMSSMVSDTSCTFPSGDGIFSKHWIQTKDGQCGSPLVSTRDGFIVGIHSASNFTNTNNYFTSVPKNFMELLTNQEAQQWVSGWRLNADSVLWGGHKVFMVKPEEPFQPVKEATQL [W141S],0.0541,0.0526,0.0521,0.0448,0.0558,0.0527,0.0334,0.0722,0.0668,,0.0663,0.0499,0.0453,0.0104,,0.0562,0.0611,
MGESLFKGPRDYNPISSSICHLTNESDGHTTSLYGIGFGPFIITNKHLFRRNNGTLVVQSLHGVFKVKDTTTLQQHLVDGRDMIIIRMPKDFPPFPQKLKFREPQREERICLVTTNFQTKSMSSMVSDTSCTFYSGDGIFWKHWIQTKDGQCGSPLVSTRDGFIVGIHSASNFTNTNNYFTSVPKNFMELLTNQEAQQWVSGWRLNADSVLWGGHKVFMVKPEEPFQPVKEATQL [P134Y],0.0631,0.051,0.058,,0.0644,0.0594,0.0691,0.0771,0.067,0.0633,,0.0601,0.054,0.0569,,0.0382,,
MGESLFKGPRDYNPISSSICHLTNESDGHTTSLYGIGFGPFIITNKHLFRRNNGTLVVQSLHGVFKVKDTTTLQQHLVDGRDMIIIRMPKDFPPFPQKLKFREPQREERICLVTTNFQTKSMSSMVSDTSCTFCSGDGIFWKHWIQTKDGQCGSPLVSTRDGFIVGIHSASNFTNTNNYFTSVPKNFMELLTNQEAQQWVSGWRLNADSVLWGGHKVFMVKPEEPFQPVKEATQL [P134C],0.0567,,0.0586,0.0526,0.0515,,0.0558,,0.0605,0.0571,0.0605,0.0477,0.0562,0.0914,0.0626,0.0544,,

# — the supplement of paper PMC12217912
